# Results: the RNAGym collection of RNA variant scans (doi:10.7554/elife.90254)
# The source gives no read counts; variants with many changes may rest on few reads.
# B1: OR4K15 (parent)
# chain: GUUAACGGUCAUAGGCCAUGGAAACUAGGAGCACCAUUUCGCUGCCAGUGAAGAAAUGAACAAAGAAAAUCUGGGCCAGGCAGGCAUCAAAAGAAAUAGUCUUGCGCUCAACCAGAAAGUCUGUAAUCAUUUUAAGGGUA
# Variants of: B1
# Experiment: self-cleavage, relative activity (ratio to wild type); higher = more cleavage; in vitro, sequencing; the parent is a self-cleaving ribozyme
row,Variant,self-cleavage
1,GUUAACGGUCAUAGGCCAUGGAAACUAGGAGCACCAUUUCGCUGCCAGUGAUGAAAUGAACAAAGAAAGUCUGGGCCAGGCAGGCAUCAAAAGAAAUAGUCUUGGGCUCAACCAGAAAGUCUGUAAUCAUUUUAAGGGUA [A52U A69G C105G],0.06
2,GUUAACGGUCAUAGGCCAUGGAAACUAGGAGCACCAUUUCGUUGCCAGUGAAGAAAUGAACAAAGAAAACCUGGGCCAGGCAGGCAUCAAUAGAAAUAGUCUUGCGCCCAACCAGAAAGUCUGUAAUCAUUUUAAGGGUA [C42U U70C A91U U108C],0.01
3,GUUAACGGUCAUAGGCCAUGGAAACUAGGUGCACCUUUUCGCUGCCAGUGAAGAAAUGAACAAAGAAAAUCUGGGCCAGGCAGGCAUCAAAAGAAAUAGUCAUGCGCUCAACCAGAAAGUCUGUAAUCAUUUUAAGGGUA [A30U A36U U102A],0.75
4,GUUAACGGUCAUAGGCCAUGGAAACUAGGAGCACCAUUUCGCUGCCAGGGAAGAGAUGAACAAAGAAAAUCUGGGCCAGGCAGGCAUCAAAAGAAAUAGUCUUGCGCUCAGCCAGAAAGUCUGUAAUCAUUUUAAGGGUG [U49G A55G A111G A140G],0.03
5,GUUAACGGUCAUAGGCCAUGGAAACUAGGUGCACCAUUUCGCUGCCAGUGAAGAAAUGAACAAAGAAAAUCUGGGCCAGGCGGGCAUCAAAAGAAAUAGUCUUGCGCUCAACCAGAAAGUCUGAAAUCAUUUUAAGGGUA [A30U A82G U124A],0.05
6,GUUAACGGUCGUAGGCCAUGGAAACUAGGAGCACCAUUUCGCUGCCUGUGAAGAAUUGAGCAAAGAAAAUCUGGGCCAGGCAGGCAUCAAAAGAAAUAGUCUUGCGCUCAACCAGAAAGUCUGUAAUCAUUUUAAGGGUA [A11G A47U A56U A60G],0.51
7,GUUAACGGUCAUAGGCCAUGGAAACUAGGAGCACCAUUUCGCUGCCAGUGAAGAAGUGAACAAAGAAAAUCUGGGCCAGGCAGGCAUCAAUAGAAAUAGUCUUGCGCUCAACCAGAGAGUCUGUAAUCAUUUUAAGGGUA [A56G A91U A117G],2.64
8,GUUGGCGGUCAUAGGCCAUGGAAACUAGGAGCACCAUUUCGCUGCCAGUGAUGAAAUGAACAAAGAAAAUCUGGGCCAGGCAGGCAUCAAAAGAAAUAGUCUUGCGCUCAACCAGAGAGUCUGUAAUCAUUUUAAGGGUA [A4G A5G A52U A117G],0.31
9,GUUAACGGUCAUAGGCCAUGGAAACUAGGAGCUCCAUUUCGCUGCCAGUGAAGAAAUGAACAAUGAAAAUCUGGGCCAGGCAGGCAUCAAAAGAAAUAGUCUUGCGCUCAACCAGAAAGUCUGUAAUCGUUUUAAGGGUA [A33U A64U A129G],0.87
10,GUUAACGGUCAUAGGCCAUGGAAACUAGGGGCGCCAUUUCGCUGCCAGUGAAGAAAUGAACAAAGAAAAUCUGGGCCAGGCAGGCAUCAAAAGAAAUAGUCUUGCGCUCAACCAGAAAGUCUGUAAUCAUUCUAAGGGUA [A30G A33G U132C],1.19
11,GCUAACGGCCGUAGGCCAUGGAAACUAGGAGCACCAUUUCGCUGCCAGCGAAGAAAUGAACAAAGAAAAUCUGGGCCAGGCAGGCAUCAAAAGAAAUAGUCUUGCGCUCAACCAGAAAGUCUGUAAUCAUUUUAAGGGUA [U2C U9C A11G U49C],0.45
12,GUUAACGGUCAUAGGCCAUGGAAGCUAGGAGCACCAUUUCGCUGCCAGUGAAGAAAUGAACAAAGAAAAUCUGGGCCAGGCAGGCAACAAAAGAAAUAGUCUUGCGCUCAACCAGAAAGUCUGUAAUCGUUUUAAGGGUA [A24G U87A A129G],1.24
13,GUUAACGGUCAUAGGCCAUGGAAACUAUGAGCACCAUUUCGCUGCCAGUGAAGAAAUGAACAAAGAAAAUCUGGGCCAGGCAGGCAUCAAAGGAAAUAGUCUUGCGCUCAACCAGAAAGUCUGUAAUCACUUUAAGGGUA [G28U A92G U130C],1.01
14,GUUAACGGUCAUAGGCCACGGAAACUAGGAGCACCAUUUCGCUGCCAGUGAAGAAAUGAACAAAGAAGAUCCGGGCCAGGCAGGCAUCAAAAGAAAUAGUCUUGCGCUCAACCAGAAAGUCUGUAAUCAUUUUAAGGGUA [U19C A68G U72C],0.04
15,GUUAACGGUCAAAGGCCACGGAAACUAGGAGCACCAUUUCUCUGCCAGUGAAGAAAUGAACAAAGAAAAUCUGCGCCAGGCAGGCAUCAAAAGAAAUAGUCUUGCGCUCAACCAGAAAGUCUGUAAUCAUUUUAAGGGUA [U12A U19C G41U G74C],0.5
16,GUUAACGGUCAUAGGCCAUGGAAACUAGGAGCACCAUUUCGCUGCCAGUGAAGAAAUGAACAAAGAAGAUCUGGGCCAGGCAGGCAUCAAAAGAAAUAGUCUUGCGCUCAGCCAGAAAGUCUGUAGUCAUUUUAAGGGUA [A68G A111G A126G],0
17,GCUAACGGUCAUAGGCCAUGGAAACUAGGAGCACCAUUUCGCUGCCAGUGAGGAAAUGAGCAAAGAAAAUCUGGGCCAGGCAAGCAUCAAAAGAAAUAGUCUUGCGCUCAACCAGAAAGUCUGUAAUCAUUUUAAGGGUA [U2C A52G A60G G83A],0.87
18,GUUAACGGUCAUAGGCCAUGGGAACUAGGAGCGCCAUUUCGCUGCCAGUGAAGAAAUGAGCAAAGAAAAUCUGGGCCAGGCAGGCAUCAAAAGAAAUAGCCUUGCGCUCAACCGGAAAGUCGGUAAUCAUUUUAGGGGUA [A22G A33G A60G U100C A114G U122G A135G],0.54
19,GUUAACGGUCAUAGGCCAUGGAAACUAGGAGCACCACUUCGCUGCCAGUGAAGAAAUGAACAAAGAAAAUCUGGGCCAGGCAGGCAUCGAAAGAAAUAGUCUUGCGCUCAACCGGAAAGUCUGUAAUCAUUUUAAGGGUA [U37C A89G A114G],0.85
20,GUUAACGGUCAUAGGCCAUGGAAACUAGGAGCACCAUUUCGCUGCCAGUGAAGAAAUGAACAAAGGAAAUCUGGGCCAGGCAGGCAUCAAAAGAAAUAGUCUUGCGCUCAACCAGGAAGUCUGUAAUCAUUUUAAGGGUG [A66G A116G A140G],1.06
